Test results: the supplement of paper PMC12217912
The other results are listed elsewhere or left out. The full chains were built here from the parent and the listed change. Values near 0.05 are background.

B1: TEV protease; numbered along this chain (parent)
chain: MGESLFKGPRDYNPISSSICHLTNESDGHTTSLYGIGFGPFIITNKHLFRRNNGTLVVQSLHGVFKVKDTTTLQQHLVDGRDMIIIRMPKDFPPFPQKLKFREPQREERICLVTTNFQTKSMSSMVSDTSCTFPSGDGIFWKHWIQTKDGQCGSPLVSTRDGFIVGIHSASNFTNTNNYFTSVPKNFMELLTNQEAQQWVSGWRLNADSVLWGGHKVFMVKPEEPFQPVKEATQL

Variants of: B1
Experiment: raw area under fraction-flipped curve 0-4 h after induction (AUC4h, not background-subtracted), DNA-recorder readout of cleavage of the substrate (dimensionless); higher = more cleavage of the substrate by the protease variant
Settings: temperature: 34 °C; time window: 0-4 h after rhamnose induction
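Note: Bxb1 expression induced with 0.2% (w/v) L-rhamnose at OD600 near 0.5, cultures sampled hourly, flipped fraction per protease–substrate barcode pair counted by paired-end Illumina sequencing.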

Variant | area with substrate ENLDFQS | area with substrate ENLEFQS | area with substrate ENLFFQS | area with substrate ENLGFQS | area with substrate ENLHFQS | area with substrate ENLMFQS | area with substrate ENLNFQS | area with substrate ENLQFQS | area with substrate ENLSFQS | area with substrate ENLVFQS
S209R | 0.0686 | 0.0551 | 0.054 | 0.0821 | 0.0516 | 0.0923 | 0.0584 | 0.0851 | 0.0571 | 0.0725
S209G | 0.0565 | 0.109 |  |  |  |  | 0.0503 |  |  | 
S209W | 0.0686 |  |  |  | 0.0893 |  |  |  | 0.0763 | 0.0867
N178C | 0.067 |  |  |  |  |  |  |  | 0.065 | 
Q75M | 0.0715 |  |  |  |  |  | 0.0624 | 0.0711 |  | 0.0977
K66A | 0.0469 | 0.0631 |  |  | 0.0706 |  | 0.0574 |  |  | 
T159P | 0.0657 |  |  |  | 0.0931 |  |  |  |  | 
N177G | 0.0763 | 0.0631 | 0.0625 |  | 0.0551 | 0.0523 | 0.0583 |  | 0.0674 | 
C131E | 0.059 |  |  |  |  |  |  |  |  | 
T233Y | 0.0615 |  |  |  |  | 0.0626 | 0.0629 |  |  | 
S201C | 0.0512 | 0.0629 | 0.0985 |  | 0.0673 |  | 0.0606 | 0.0797 | 0.0276 | 0.0815
F163P | 0.0676 |  |  |  |  |  | 0.0936 |  | 0.0673 | 
F163Y | 0.0634 |  | 0.0784 |  | 0.0716 | 0.0859 | 0.0657 | 0.0599 | 0.0672 | 
F163S | 0.0715 |  |  |  |  |  |  |  |  | 
F163K | 0.0755 | 0.124 | 0.0741 |  | 0.0533 | 0.0783 | 0.071 |  | 0.0704 | 0.0803
E189Y | 0.034 | 0.082 |  |  |  |  | 0.0504 |  |  | 
S154A | 0.0609 |  | 0.0761 |  | 0.0657 |  | 0.0663 | 0.0753 |  | 
G2I | 0.063 |  | 0.133 |  | 0.081 |  |  |  | 0.0381 | 
V57I | 0.0634 |  | 0.117 |  |  |  | 0.0605 |  | 0.0576 | 0.0638
D149I | 0.0398 | 0.0595 | 0.08 |  |  | 0.077 | 0.0701 | 0.0769 | 0.0785 | 
M125W | 0.0774 | 0.0522 | 0.0797 |  | 0.0616 |  | 0.0556 |  |  | 
F6N | 0.054 |  | 0.0697 | 0.0536 | 0.0771 |  |  |  |  | 
Q118W | 0.0706 | 0.0698 | 0.0793 |  |  |  | 0.0606 | 0.0511 |  | 

Same assay, conditions: temperature: 34 °C; time window: 0-4 h after rhamnose induction

Variant | area with substrate ENLWFQS | area with substrate ENLKFQS | area with substrate ENLPFQS | area with substrate ENLRFQS | area with substrate ENLLFQS | area with substrate ENLIFQS | area with substrate ENLTFQS
S209R | 0.0637 |  |  |  |  |  | 
S209G |  | 0.0829 | 0.0638 | 0.0648 |  |  | 
S209W |  |  |  | 0.0646 |  |  | 
N178C |  | 0.0911 |  |  |  |  | 
Q75M | 0.0546 | 0.0834 |  | 0.053 | 0.0698 |  | 
K66A |  |  |  |  | 0.0751 |  | 
N177G |  |  | 0.0744 | 0.046 |  |  | 
C131E |  |  |  |  | 0.0555 |  | 
T233Y |  | 0.0972 | 0.0516 | 0.0768 | 0.0736 |  | 
S201C | 0.0862 | 0.073 | 0.0639 | 0.0968 | 0.0634 |  | 
F163P |  | 0.0717 | 0.0657 |  |  | 0.0699 | 
F163Y | 0.0691 |  | 0.0469 | 0.0626 | 0.0884 | 0.0357 | 
F163K | 0.0573 | 0.0779 |  |  |  |  | 
E189Y |  | 0.0802 | 0.05 |  |  | 0.0741 | 
S154A |  | 0.0744 | 0.0693 | 0.078 | 0.0685 | 0.0802 | 
G2I |  | 0.108 |  |  |  |  | 
V57I |  | 0.0814 |  | 0.0674 |  | 0.0962 | 0.0775
D149I | 0.046 |  |  |  | 0.0817 | 0.0547 | 
M125W |  |  |  |  |  | 0.106 | 
F6N |  | 0.0581 |  | 0.0564 |  |  | 
Q118W |  | 0.0709 | 0.0667 | 0.0764 |  | 0.0925 | 
